The whole screen tested about 310,000 compounds, of which about 14,000 (4.5%) showed an effect of 50% or more. Effects have a minus sign here. The list shows a part of the results.
Target: human ether-à-go-go-related gene (hERG) potassium channel (human, UniProt Q12809)
Experiment: primary screen, population patch clamp on CHO cells stably expressing hERG
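Further: peak tail current of the secondary pulse compared with the same well before compound.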

Sequence of human ether-à-go-go-related gene (hERG) potassium channel (Q12809 whole entry, looked up): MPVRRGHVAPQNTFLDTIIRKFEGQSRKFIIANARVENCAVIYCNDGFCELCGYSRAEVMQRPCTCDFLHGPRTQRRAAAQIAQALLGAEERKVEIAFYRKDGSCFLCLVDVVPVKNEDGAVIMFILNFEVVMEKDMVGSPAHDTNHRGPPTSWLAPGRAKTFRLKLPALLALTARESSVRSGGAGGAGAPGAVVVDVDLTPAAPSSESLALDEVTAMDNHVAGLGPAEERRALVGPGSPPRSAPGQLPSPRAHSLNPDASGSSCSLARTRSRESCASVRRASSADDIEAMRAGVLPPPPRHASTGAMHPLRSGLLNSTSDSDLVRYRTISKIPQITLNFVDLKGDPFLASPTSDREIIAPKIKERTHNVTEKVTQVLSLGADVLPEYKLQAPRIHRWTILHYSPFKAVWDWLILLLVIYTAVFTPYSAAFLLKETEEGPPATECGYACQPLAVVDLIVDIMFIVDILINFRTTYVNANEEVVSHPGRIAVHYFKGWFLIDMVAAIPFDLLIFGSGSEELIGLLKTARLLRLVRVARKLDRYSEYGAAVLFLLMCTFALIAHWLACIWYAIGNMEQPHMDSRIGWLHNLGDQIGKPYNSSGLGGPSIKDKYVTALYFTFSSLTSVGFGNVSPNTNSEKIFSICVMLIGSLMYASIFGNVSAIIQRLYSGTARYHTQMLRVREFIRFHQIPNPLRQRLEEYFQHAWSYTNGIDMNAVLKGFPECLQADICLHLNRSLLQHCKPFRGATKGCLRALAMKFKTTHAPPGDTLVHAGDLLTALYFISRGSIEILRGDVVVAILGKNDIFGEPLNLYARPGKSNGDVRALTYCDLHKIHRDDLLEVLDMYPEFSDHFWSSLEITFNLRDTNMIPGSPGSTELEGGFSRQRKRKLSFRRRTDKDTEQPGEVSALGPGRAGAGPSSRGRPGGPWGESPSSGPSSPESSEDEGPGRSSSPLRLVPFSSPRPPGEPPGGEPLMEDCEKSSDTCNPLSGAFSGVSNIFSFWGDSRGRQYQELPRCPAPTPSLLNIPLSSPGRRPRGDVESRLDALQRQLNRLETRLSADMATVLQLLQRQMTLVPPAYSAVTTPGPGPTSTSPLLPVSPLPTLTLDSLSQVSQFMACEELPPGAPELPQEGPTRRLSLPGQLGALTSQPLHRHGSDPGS

In order of rising “hERG current change (%, negative = inhibition) at 10uM” value:
1. CCOC(=O)C1(CC2CC2)CCN(Cc2cn[nH]c2-c2cccc(F)c2)CC1  -91.6%
2. O=C(c1ccco1)N1CCN(C(=O)c2ccc(-c3cccc(C(F)(F)F)c3)o2)CC1  -79.9%
3. CCCCc1ccc(NC(=O)CSc2nc(=O)n(CCN(CC)CC)c3c2CCCC3)cc1  -66.7%
4. COc1ccc(C2=Nn3c(nnc3-c3ccco3)SC2)cc1  -63.6%
5. CCOC(=O)C1CCN(S(=O)(=O)c2ccc3c4c(cccc24)C(=O)N3)CC1  -54.6%
6. Cc1oc2c(CN3CCCCC3C)c(O)ccc2c(=O)c1-c1ccc(Br)cc1 (centres unmarked)  -50.9%
7. COc1ccc(/C=C/C(=O)N(C)C2CCCCC2)cc1Br  -43.3%
8. Cc1ccc(NC(=O)c2cc([N+](=O)[O-])ccc2NCc2cccnc2)cc1Cl  -41.7%
9. O=C(COc1ccc(Cl)cc1Br)NCC(c1ccco1)N1CCCC1 (centres unmarked)  -39.5%
10. COc1ccccc1N1CCN(C(=O)CCc2nnc3ccc(N4CCC(C)CC4)nn23)CC1  -33.5%
11. CC(NC(=O)c1ccccc1SCC(=O)N1CCCC1)c1ccccc1 (centres unmarked)  -26.1%
12. O=C(Nc1ccc(Cl)c(Cl)c1)Nc1cc(C(=O)N2CCOCC2)ccc1N1CCCCC1  -23.3%
13. CC(C(=O)c1ccc2ccccc2c1)N1CCCCC1 (centres unmarked)  -21.4%
14. Cc1ccc(NC(=O)COC(=O)/C=C/c2ccco2)cc1S(=O)(=O)N(C)C  -21%
15. Cc1ccc(CN(C)C(=O)c2cc(COc3cccc(C(F)(F)F)c3)on2)o1  -17.8%
16. CC1CCN(C(=O)COC(=O)C2CCN(S(=O)(=O)c3ccc4c(c3)OCCO4)CC2)CC1  -17.5%
17. COc1ccc(NC(=O)Nc2ccc3c(c2)CCC3)cc1  -16.6%
18. O=C(NCc1cccnc1)c1cc(-c2ccccc2)on1  -16.4%
19. Cc1c(OC(C)C(=O)NCc2cccnc2)ccc2c3c(c(=O)oc12)CCCC3 (centres unmarked)  -16.3%
20. CCC(=O)N1CCC2(CC1)Oc1ccc(F)cc1C(=O)C21CC(c2ccc(Cl)cc2)=NO1 (centres unmarked)  -14.9%
21. CCN(CC)S(=O)(=O)c1cccc(C(=O)N[C@H](C(=O)Nc2nc3ccc(F)cc3s2)C(C)C)c1  -13.9%
22. CCCn1c(SCC(=O)Nc2ccccc2C(=O)OC)nc2c1c(=O)n(C)c(=O)n2C  -12.1%
23. O=[N+]([O-])c1nn(-c2ccc(Cl)cc2)n(O)c1=NCc1ccccc1  -10.1%
24. C=CCNc1nc(-c2ccccc2)nc(-n2ccnc2)n1  -9.66%
25. Cc1cc(Cl)ccc1NC(=S)N1CCN(C(=O)c2ccco2)CC1  -8.95%
26. COc1nc2c(C)cccc2cc1-c1noc(-c2ccco2)n1  -8.01%
27. CC(Cc1ccccc1)C(=O)NCc1nc2ccccc2s1 (centres unmarked)  -6.61%
28. COC(=O)Cc1ccc(NC(=S)NCc2ccccc2Cl)cc1  -6.56%
29. COC(=O)c1cc(S(=O)(=O)N2CCC(c3cc(OC)ccc3OC)C2)c[nH]1 (centres unmarked)  -6.4%
30. O=C(c1cc2ccccc2o1)N1CCCCCC1  -5.92%
31. COc1cc(/C=C/C(=O)NC(=O)c2ccccc2O)ccc1OC(C)=O  -5.45%
32. CCCS(=O)(=O)Nc1c(OC)ccc2c1c(C(=O)OCC)c(C)n2C  -4.56%
33. O=C(O)C(=O)O.c1coc(CNC2CCCCC2)c1  -2.66%
34. O=C(O)CN(Cc1ccccc1)S(=O)(=O)c1ccc2c(c1)OCCO2  -1.41%
35. CCc1ccc(NC(=O)CS(=O)CC(=O)Nc2ccc(F)cc2F)cc1 (centres unmarked)  -0.916%
36. O=C(CNS(=O)(=O)c1ccc(Br)cc1Cl)OCC(=O)N1CCCC1=O  -0.327%
37. CC(NC(=O)c1ccccc1F)c1nnc(SCC(=O)N2CCN(c3ccccc3)CC2)n1C (centres unmarked)  -0.0704%
38. O=C(CN1CCC(C(O)(c2ccccc2)c2ccccc2)CC1)Nc1cc(Cl)ccc1Cl  0.176%
39. CC(=O)c1cccc(NC(=O)c2ccc(N(C)S(=O)(=O)c3ccc(C)cc3)cc2)c1  0.342%
40. NC(=O)Cc1nc(-c2ccc(F)cc2)cs1  0.939%
41. COC(=O)C1CCN(C(=O)c2cc(=O)[nH]c3ccccc23)CC1  2.15%
42. CCOC(=O)N1CCN(S(=O)(=O)c2ccc(C(=O)NNc3nc4ccc(Cl)cc4s3)cc2)CC1  2.66%
43. COc1ccc(CN2CC(C(N)=O)Oc3ccccc32)cc1F (centres unmarked)  3.16%
44. Cn1nnnc1SCC(=O)c1ccc(Br)s1  3.42%
45. CC1CCCC(C)N1C(=O)COC(=O)COc1ccccc1C#N (centres unmarked)  3.61%
46. C[C@H](NC(=O)c1nc[nH]c1C(=O)N(C)Cc1ccccc1)c1ccccc1  3.98%
47. CCOc1ccc(NC(=O)c2ccc(N)cc2)cc1  4.11%
48. Cc1nc(-c2ccccc2)sc1C(=O)/C=C/c1ccccc1  4.34%
49. Cc1cc(C)n(CC(=O)n2c3ccccc3c3ccccc32)n1  4.45%
50. COc1ccc(CCNC(=O)c2ccc(-c3ccc([N+](=O)[O-])cc3Cl)o2)cc1  4.64%
51. CC(C)OC(=O)CSc1nnc(Cc2ccccc2)n1CC1CCCO1 (centres unmarked)  4.89%
52. Cc1oc2cc3c(C(=O)N4CCCCC4)c(C)oc3cc2c1C(=O)N1CCCCC1  5.17%
53. CCOC(=O)c1c(NC(C)=O)sc2c1CCC(C=NCCCN(CC)CC)=C2Sc1ccccc1  5.55%
54. O=C(c1cccc(S(=O)(=O)N2CCCCC2)c1)N1CCCCC1  5.7%
55. CN(C)C(=O)CSc1nnc2sc3ccccc3n12  6.04%
56. NC(=O)c1c(NC(=O)c2cc3ccccc3o2)sc2c1CCC2  7.21%
57. O=[N+]([O-])c1cc(C(F)(F)F)ccc1NCCCCNS(=O)(=O)c1ccc(Cl)cc1  7.38%
58. Cc1ccc(C(=O)N2CCCC2)cc1S(=O)(=O)N1CCCCC1  8.68%
59. O=C(OCC(=O)N1CCc2ccccc21)c1ccc(Cl)nc1  8.87%
60. CCNc1nc(SCCOc2ccc(C)cc2)nc(N(C)C)n1  9.02%
61. O=C(N/N=C\c1c(O)ccc2ccccc12)c1ccc(Cn2cccn2)o1  9.2%
62. O=C(Cn1cncn1)N/N=C/c1ccncc1  9.23%
63. CCCCc1ccc(-c2csc(/C(C#N)=C\c3ccc(C)o3)n2)cc1  9.23%
64. S=C(Nc1cccnc1)NC1CCCC1  9.3%
65. Cc1ccc(O)c(Cn2nnc3ccccc32)c1  10.6%
66. Cc1c(O)cc2n(c1=O)-c1ccccc1C2(C)C  11.5%
67. O=C(NCCc1ccccc1)c1cc(-c2ccco2)on1  11.8%
68. Cc1nn2c(=O)nc3sc4c(c3c2[nH]c1=O)CCCC4  11.9%
69. O=C(/C=C/Sc1ccccc1)c1ccc(Cl)cc1  12%
70. CCCOc1ccccc1C(=O)NCCCC(=O)O  12.2%
71. COc1cccc(CNC(=O)COC(=O)c2nc(Cl)c(Cl)c(Cl)c2Cl)c1  12.4%
72. CC(C)NCC(O)COc1cccc2[nH]ccc12 (centres unmarked)  13.3%
73. CC(C)(CO)NS(=O)(=O)c1ccc2c(c1)C(=NO)c1cc(S(=O)(=O)NC(C)(C)CO)ccc1-2  13.4%
74. Cc1ccc(C(=O)COC(=O)CCS(=O)(=O)c2ccccc2)cc1[N+](=O)[O-]  14.5%
75. Cc1ccc(C(C(=O)NC2CCCCC2)N(C(=O)c2csnn2)c2ccccc2F)o1 (centres unmarked)  14.9%
76. COc1ccc(NC(=O)CS(=O)(=O)c2ccc(F)cc2)cc1  15.9%
77. Cc1ccccc1CNc1ncnc2cc(Cl)ccc12  16.4%
78. COC(=O)c1ccc(COc2ncnc3sccc23)cc1  16.8%
79. COc1cc(/C=N/NC(=O)C(N)=O)ccc1OC(=O)c1cccs1  17.1%
80. Cc1ccc(-c2cc(C(=O)O)c3ccccc3n2)s1  17.3%
81. Cc1onc(C(=O)Nc2ccc(OC(F)(F)F)cc2)c1[N+](=O)[O-]  17.4%
82. COCCNc1cnn(-c2ccccc2)c(=O)c1Cl  19.5%
83. CCOC(=O)CSc1nc2sc3c(c2c(=O)[nH]1)CCCC3  19.6%
84. CC(=O)c1cccc(NS(=O)(=O)c2csc(C(N)=O)c2)c1  22.4%
85. O=C(O)c1ccc(Cl)c(S(=O)(=O)N(Cc2ccccc2)c2ccc(Cl)cc2)c1  23.2%
86. O=c1[nH]c(C2CCCN(S(=O)(=O)c3ccccc3)C2)nc2c1nnn2Cc1ccc(OC(F)(F)F)cc1 (centres unmarked)  26.6%
87. COc1ccc(-c2cc(C(F)(F)F)c3c(=O)n(-c4ccccc4)[nH]c3n2)cc1  27.5%
88. Cc1cccc(C(=O)NCC(=O)N2CC(=O)Nc3ccccc32)c1  53.7%
89. COc1ccc(Cl)cc1NC(=O)CNc1ccccc1N1CCOCC1  64%

From publication PMC4336329 (PLoS ONE, 2015)
